Experimental findings from patent publication US20210269496A1 (PANDION OPERATIONS, published 2021) are described below.

For this assay, the target named is T1, CD25 (Homo sapiens (Human), UniProt P01589 22-240).
T1 construct: also called IL-2R alpha chain
T1 sequence: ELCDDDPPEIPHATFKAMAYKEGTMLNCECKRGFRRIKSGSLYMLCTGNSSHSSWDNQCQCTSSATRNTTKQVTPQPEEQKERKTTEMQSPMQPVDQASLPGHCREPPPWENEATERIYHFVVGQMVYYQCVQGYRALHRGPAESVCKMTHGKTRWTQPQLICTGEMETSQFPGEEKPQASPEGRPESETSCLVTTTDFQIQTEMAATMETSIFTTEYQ
The assay is described as follows: ELISA, CD25 coated at 0.5 µg/mL, detection with biotinylated anti-IL-2 polyclonal. The method, then: An immunosorbent plate was coated with CD25 at a concentration of 0.5 μg/mL in PBS pH 7.4, 75 μL/well, and incubated overnight at 4° C. Wells were washed with PBS pH 7.4 containing 0.05% Tween-20 (wash buffer) three times, and then blocked with 200 μL/well 1% BSA in PBS pH 7.4 (block buffer) for two hours at room temperature. After three washes with wash buffer IL-2 muteins SEQ ID NO: 53, SEQ ID NO: 54, SEQ ID NO: 55, SEQ ID NO: 56 were diluted to eleven-two fold serial dilution in PBS containing 1% BSA and 0.05% Tween-20 (assay buffer) with 2 nM being the highest concentration. The diluted material was added to the CD25 coated plate at 75 μL/well for 1 hour at room temperature. After three washes with wash buffer, a goat biotinylated anti-IL-2 polyclonal antibody, diluted to 0.05 μg/mL in assay buffer, was added to the plate at 75 μL/well for 1 hour at room temperature. After three washes with wash buffer high sensitivity streptavidin HRP diluted in assay buffer at 1:5000 was added to the plate at 75 μL/well for 15 minutes at room temperature. After three washes with wash buffer and 1 wash with wash buffer (with no Tween-20), the assay was developed with TMB, and stopped with 1N HCL. OD 450 nm was measured. The experiment included appropriate controls for non-specific binding of the molecules to the plate/block in the absence of CD25. […]
(An ELISA detects its analyte on a solid surface through an enzyme-linked reagent.)

B1: human IL-2 mutein polypeptide fused C-terminally to human IgG1 Fc domain (SEQ ID NO: 58) (Fc fusion)
chain: [in this place human IgG1 Fc with changes]GGGSAPTSSSTKKTQLQLEHLLLDLQMILNGINNYKNPKLTRMLTFKFYMPKKATELKHLQCLEEELKPLEEALNLAPSKNFHLRPRDLISDINVIVLELKGSETTFMCEYADETATIVEFLNRWITFAQSIISTLT
notes: also called FC-G4S-IL-2 N88D V69A, Q74P
B1 showed a 50% effective concentration (EC50) of less than 1 nM.

The EC50 is the midpoint of the concentration-response curve. The low end stands for an effect from little substance, the high end for a need for much substance.
